Data from the supplement of paper PMC8728848.
The list shows a part of the results.

Key:
Experiment in all cases: glycan array binding signal (z-score within array); higher = stronger binding
Conditions in all cases: glycan notation: IUPAC condensed, linker removed
[1] = target: Gal(b1-3)GlcNAc(b1-2)Man(a1-3)[Gal(b1-3)GlcNAc(b1-2)Man(a1-6)]Man(b1-4)GlcNAc(b1-4)[Fuc(a1-6)]GlcNAc
How it was run: (§1)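 The Consortium for Functional Glycomics database supplied 3228 glycan arrays, of which those lacking an available protein sequence were dropped. The binding signal, a within-array Z-score, was averaged across arrays of the same protein sequence and across linkers. Negative scores can be read as non-binding.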

[2] = target: Gal(b1-3)GlcNAc(b1-2)Man(a1-3)[GlcNAc(b1-4)][Gal(b1-3)GlcNAc(b1-2)Man(a1-6)]Man(b1-4)GlcNAc(b1-4)GlcNAc
How it was run: as §1

[3] = target: Gal(b1-3)GlcNAc(b1-2)[Gal(b1-3)GlcNAc(b1-6)]Man(a1-6)[Gal(b1-3)GlcNAc(b1-2)Man(a1-3)]Man(b1-4)GlcNAc(b1-4)GlcNAc
How it was run: as §1

[4] = target: Gal(b1-3)GlcNAc(b1-3)Gal(b1-3)GlcNAc
How it was run: as §1

[5] = target: Gal(b1-3)GlcNAc(b1-3)Gal(b1-4)Glc
How it was run: as §1

[6] = target: Gal(b1-3)GlcNAc(b1-3)Gal(b1-4)GlcNAc
How it was run: as §1

[7] = target: Gal(b1-3)GlcNAc(b1-3)Gal(b1-4)GlcNAc(b1-2)Man(a1-3)[Gal(b1-3)GlcNAc(b1-3)Gal(b1-4)GlcNAc(b1-2)Man(a1-6)]Man(b1-4)GlcNAc(b1-4)GlcNAc
How it was run: as §1

[8] = target: Gal(b1-3)GlcNAc(b1-3)Gal(b1-4)GlcNAc(b1-2)[Gal(b1-3)GlcNAc(b1-3)Gal(b1-4)GlcNAc(b1-6)]Man(a1-6)[Gal(b1-3)GlcNAc(b1-3)Gal(b1-4)GlcNAc(b1-2)Man(a1-3)]Man(b1-4)GlcNAc(b1-4)[Fuc(a1-6)]GlcNAc
How it was run: as §1

[9] = target: Gal(b1-3)GlcNAc(b1-3)Gal(b1-4)GlcNAc(b1-3)Gal(b1-4)GlcNAc(b1-2)[Gal(b1-3)GlcNAc(b1-3)Gal(b1-4)GlcNAc(b1-3)Gal(b1-4)GlcNAc(b1-6)]Man(a1-6)[Gal(b1-3)GlcNAc(b1-3)Gal(b1-4)GlcNAc(b1-3)Gal(b1-4)GlcNAc(b1-2)Man(a1-3)]Man(b1-4)GlcNAc(b1-4)[Fuc(a1-6)]GlcNAc
How it was run: as §1

[10] = target: Gal(b1-3)GlcNAc(b1-3)Gal(b1-4)GlcNAc(b1-6)[Gal(b1-3)GlcNAc(b1-3)]Gal(b1-4)Glc
How it was run: as §1

[11] = target: Gal(b1-3)GlcNAc(b1-3)Gal(b1-4)[Fuc(a1-3)]GlcNAc
How it was run: as §1

[12] = target: Gal(b1-3)GlcNAc(b1-3)Gal(b1-4)[Fuc(a1-3)]GlcNAc(b1-6)[Gal(b1-3)GlcNAc(b1-3)]Gal(b1-4)Glc
How it was run: as §1

[13] = target: Gal(b1-3)GlcNAc(b1-3)GalNAc
How it was run: as §1

[14] = target: Gal(b1-3)GlcNAc(b1-6)Gal(b1-4)GlcNAc
How it was run: as §1

[15] = target: Gal(b1-3)GlcNAc(b1-6)GalNAc
How it was run: as §1

[16] = target: Gal(b1-3)GlcNAc(b1-6)[Gal(b1-3)]GalNAc
How it was run: as §1

Gal(b1-3)GlcNAc6S = target: Gal(b1-3)GlcNAc6S
How it was run: as §1

[17] = target: Gal(b1-3)[Fuc(a1-4)]GlcNAc
How it was run: as §1

[18] = target: Gal(b1-3)[Fuc(a1-4)]GlcNAc(b1-2)Man
How it was run: as §1

[19] = target: Gal(b1-3)[Fuc(a1-4)]GlcNAc(b1-2)Man(a1-3)[Gal(b1-3)[Fuc(a1-4)]GlcNAc(b1-2)Man(a1-6)]Man(b1-4)GlcNAc(b1-4)[Fuc(a1-6)]GlcNAc
How it was run: as §1

[20] = target: Gal(b1-3)[Fuc(a1-4)]GlcNAc(b1-3)Gal(b1-3)[Fuc(a1-4)]GlcNAc
How it was run: as §1

[21] = target: Gal(b1-3)[Fuc(a1-4)]GlcNAc(b1-3)Gal(b1-4)[Fuc(a1-3)]GlcNAc
How it was run: as §1

[22] = target: Gal(b1-3)[Fuc(a1-4)]GlcNAc(b1-6)GalNAc
How it was run: as §1

[23] = target: Gal(b1-3)[GlcNAc(b1-6)]GalNAc
How it was run: as §1

[24] = target: Gal(b1-3)[Neu5Ac(a2-6)]GalNAc
How it was run: as §1

[25] = target: Gal(b1-3)[Neu5Ac(a2-6)]GlcNAc(b1-4)Gal(b1-4)Glc
How it was run: as §1

[26] = target: Gal(b1-3)[Neu5Ac(b2-6)]GalNAc
How it was run: as §1

Gal(b1-4)Gal = target: Gal(b1-4)Gal
How it was run: as §1

[27] = target: Gal(b1-4)GalNAc(a1-3)[Fuc(a1-2)]Gal(b1-4)GlcNAc
How it was run: as §1

[28] = target: Gal(b1-4)GalNAc(b1-3)[Fuc(a1-2)]Gal(b1-4)GlcNAc
How it was run: as §1

Gal(b1-4)Glc = target: Gal(b1-4)Glc
How it was run: as §1

Gal(b1-4)Glc6S = target: Gal(b1-4)Glc6S
How it was run: as §1

Gal(b1-4)GlcNAc = target: Gal(b1-4)GlcNAc
How it was run: as §1

[29] = target: Gal(b1-4)GlcNAc(a1-6)Gal(b1-4)GlcNAc
How it was run: as §1

Gal(b1-4)GlcNAc(b1-2)Man = target: Gal(b1-4)GlcNAc(b1-2)Man
How it was run: as §1

[30] = target: Gal(b1-4)GlcNAc(b1-2)Man(a1-3)Man(b1-4)GlcNAc(b1-4)GlcNAc
How it was run: as §1

[31] = target: Gal(b1-4)GlcNAc(b1-2)Man(a1-3)[Gal(b1-4)GlcNAc(b1-2)Man(a1-6)]Man(b1-4)GlcNAc(b1-4)GlcNAc
How it was run: as §1

B1: ClecSol-Fc (Cryptosporidium parvum) (protein)
chain: CPEGWISNGEKTRCFKLVTFDRPRTFSHGFKACNDLGGTEVETRRRNGSKETNEYPVTLASVYKLSDEEAIRRTLVEQGDIHKTANGCFVGLRKYAFFRYPPGWYWIDSGSPVSVRDSEINWTSSYNASWLLRFKFPFEKCGFFDIGGLGRRPCWLIDSELSCAVCGTVAYDSGGLNPNKYSELIKQTDEIISKEPKLDLPGYNNLNCTDAWENNLSVGLCQNVSNILDSAWSSYQSSLNFPSINFNWKEDSTNEGGDQVYHNSYLDLPRYKQKKTFYWDQDPGTIPALSDEMKLIGLSAQPTYHPLDRSSSGSFESDSTESGRANEERNDTLEEMIYKQSSDSIEDILVPVTKPIFSDYSSIGRNSGVEEVYSSNVSTISSKGVVFPNTTTSSDNDFTKNNPANSSKHTSTSTTTNTTTTTTRTTTTTTTTTTTTTTTTTTTTETTTTKKSTTATKNTTTT
glycan array binding signal (z-score) [1]: 0.149
glycan array binding signal (z-score) [2]: 0.091
glycan array binding signal (z-score) [3]: -0.182
glycan array binding signal (z-score) [4]: 0.054
glycan array binding signal (z-score) [5]: -0.179
glycan array binding signal (z-score) [6]: -0.214
glycan array binding signal (z-score) [7]: -0.273
glycan array binding signal (z-score) [8]: 0.148
glycan array binding signal (z-score) [9]: -0.189
glycan array binding signal (z-score) [10]: -0.016
glycan array binding signal (z-score) [11]: -0.218
glycan array binding signal (z-score) [12]: -0.204
glycan array binding signal (z-score) [13]: -0.2
glycan array binding signal (z-score) [14]: -0.108
glycan array binding signal (z-score) [15]: -0.18
glycan array binding signal (z-score) [16]: -0.131
glycan array binding signal (z-score) (Gal(b1-3)GlcNAc6S): -0.093
glycan array binding signal (z-score) [17]: -0.042
glycan array binding signal (z-score) [18]: -0.208
glycan array binding signal (z-score) [19]: -0.172
glycan array binding signal (z-score) [20]: -0.059
glycan array binding signal (z-score) [21]: -0.152
glycan array binding signal (z-score) [22]: 0.049
glycan array binding signal (z-score) [23]: -0.093
glycan array binding signal (z-score) [24]: -0.235
glycan array binding signal (z-score) [25]: -0.143
glycan array binding signal (z-score) [26]: -0.149
glycan array binding signal (z-score) (Gal(b1-4)Gal): -0.099
glycan array binding signal (z-score) [27]: -0.218
glycan array binding signal (z-score) [28]: -0.162
glycan array binding signal (z-score) (Gal(b1-4)Glc): -0.122
glycan array binding signal (z-score) (Gal(b1-4)Glc6S): 0.045
glycan array binding signal (z-score) (Gal(b1-4)GlcNAc): -0.04
glycan array binding signal (z-score) [29]: 0.157
glycan array binding signal (z-score) (Gal(b1-4)GlcNAc(b1-2)Man): -0.066
glycan array binding signal (z-score) [30]: -0.14
glycan array binding signal (z-score) [31]: -0.22
